Measurements: article PMC4336329 (PLoS ONE, 2015)
Among all 310,000 compounds or so, about 2,200 (0.71%) showed an effect of 50% or more. The effect is printed as a negative number. This is one part of the list.

target: human ether-à-go-go-related gene (hERG) potassium channel (human, UniProt Q12809); assay: primary screen, population patch clamp on CHO cells stably expressing hERG
Sequence (Q12809 whole entry, looked up): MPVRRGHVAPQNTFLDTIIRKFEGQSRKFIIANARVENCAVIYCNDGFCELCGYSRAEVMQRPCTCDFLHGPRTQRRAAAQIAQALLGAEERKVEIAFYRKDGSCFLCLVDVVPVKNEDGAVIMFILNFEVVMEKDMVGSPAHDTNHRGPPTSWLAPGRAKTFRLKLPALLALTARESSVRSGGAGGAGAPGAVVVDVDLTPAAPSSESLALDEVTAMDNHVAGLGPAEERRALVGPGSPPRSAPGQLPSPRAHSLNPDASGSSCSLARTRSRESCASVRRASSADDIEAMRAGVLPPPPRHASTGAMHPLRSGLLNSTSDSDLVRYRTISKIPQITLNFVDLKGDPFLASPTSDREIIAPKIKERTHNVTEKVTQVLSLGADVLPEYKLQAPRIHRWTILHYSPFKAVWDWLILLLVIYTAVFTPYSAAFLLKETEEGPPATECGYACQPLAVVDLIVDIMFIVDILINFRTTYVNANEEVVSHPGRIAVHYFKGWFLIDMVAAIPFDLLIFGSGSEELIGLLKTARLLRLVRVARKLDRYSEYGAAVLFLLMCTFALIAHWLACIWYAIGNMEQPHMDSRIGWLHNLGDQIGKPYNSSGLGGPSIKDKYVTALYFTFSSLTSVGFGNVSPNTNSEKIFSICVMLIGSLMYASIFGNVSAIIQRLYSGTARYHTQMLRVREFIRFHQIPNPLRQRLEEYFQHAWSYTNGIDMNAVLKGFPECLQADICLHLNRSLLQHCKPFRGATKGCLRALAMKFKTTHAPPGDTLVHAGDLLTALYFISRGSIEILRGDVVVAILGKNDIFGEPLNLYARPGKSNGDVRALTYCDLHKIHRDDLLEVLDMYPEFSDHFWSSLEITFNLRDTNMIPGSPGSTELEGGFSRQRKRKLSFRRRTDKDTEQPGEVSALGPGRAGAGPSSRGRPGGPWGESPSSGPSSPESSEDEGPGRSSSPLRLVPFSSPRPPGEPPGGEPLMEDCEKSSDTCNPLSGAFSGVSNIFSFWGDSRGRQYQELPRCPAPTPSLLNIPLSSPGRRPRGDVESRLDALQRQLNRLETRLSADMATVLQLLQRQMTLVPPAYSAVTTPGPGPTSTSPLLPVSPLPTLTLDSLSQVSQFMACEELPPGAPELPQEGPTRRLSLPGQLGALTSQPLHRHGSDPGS

Structure (SMILES) | hERG current change (%, negative = inhibition) at 1uM [%]
COc1cccc(C(C(=O)NC2CCCCC2)N(C(=O)c2ccccn2)c2cccnc2)c1 (centres unmarked) | 12.5
O=C(CNC(=O)c1[nH]cnc1C(=O)N[C@@H](Cc1ccccc1)C(=O)OCc1ccccc1)OCc1ccccc1 | 9.29
O=C(/C=C/Nc1cccc([N+](=O)[O-])c1)c1cccs1 | 14.2
CCNc1nc(NCC)nc(N/N=C/c2ccccc2)n1 | 14.6
Cc1ccc(S(=O)(=O)N2CCN(C(=O)/C=C/c3ccco3)CC2)cc1 | -16.5
O=C(NCC(=O)N1CCCC1)c1ccc(Br)cc1 | 16.7
CCCc1cc(C(=O)Nc2ccc(Cl)cn2)cs1 | 9.72
CCN(c1ccccc1)S(=O)(=O)c1csc(C(N)=O)c1 | 9.26
COCCn1c(-c2ccc(OC)cc2)cnc1SCC(=O)Nc1cc(C)on1 | 9.78
COCCn1c(COc2cccc(OC)c2)nnc1SCC(=O)N1CCOCC1 | 8.23
C[n+]1ccc(/C=C/c2ccccc2O)c2ccccc21.[I-] | 8.85
COc1cccc(S(=O)(=O)Nc2cccc(C(=O)N3CCCCCC3)c2)c1 | 9.21
C[C@H](NC(=O)NCc1cccs1)C(=O)O | 0.414
COc1ccc(NC(=O)NCCc2cccc(Cl)c2)cc1OC | 11.2
COc1c(C)cc(C(=O)C2CCCN(C(=O)c3cc(C)n(C)n3)C2)cc1C (centres unmarked) | 7.96
CN1CCC(N(C)S(=O)(=O)c2ccc(Cl)cc2)CC1 | 10.8
COC(=O)/C(C#N)=C1/C=Cc2ccccc2N1C | 6
O=C1/C(=C/c2ccsc2)N2CCC1CC2 | 8.86
O=C(NCc1ccc2c(c1)OCO2)c1nc(Cn2cc(Br)cn2)no1 | 9
CCN(CC)c1ccc(C(=O)OCC(=O)N2CCN(c3ccccc3)CC2)cc1 | 13.5
CCCCCC(=O)Nc1cccc(C2=NOC3(C2)C[C@@H](C(N)=O)N(C(=O)CC(c2ccccc2)c2ccccc2)C3)c1 (some centres unmarked) | 6.04
CCOCCCNC(=O)/C(C#N)=C/c1ccc([N+](=O)[O-])o1 | 6.77

Structure (SMILES) | hERG current change (%, negative = inhibition) at 1uM [%]
COc1ccccc1C(NC(=O)CC(C)C)c1c(O)ccc2ccccc12 (centres unmarked) | 17.6
O=C(NCC(c1ccco1)N1CCN(c2ccc(F)cc2)CC1)c1ccco1 (centres unmarked) | 1.06
Cc1nc2c(C#N)c[nH]n2c(=O)c1Cc1ccccc1 | 7.14
CC1=C(C(=O)N2CCOCC2)C(c2cccc(C)c2)NC(=S)N1 (centres unmarked) | 8.36
CN(C(=O)c1coc(=O)c2ccccc12)c1ccccc1Cl | -0.432
CC(/C=N/N1C(=O)CSC1=S)=C\c1ccccc1 | 14.6
Cc1cc(C)cc(N=Cc2ccc([N+](=O)[O-])s2)c1 | 9.42
O=C(CN1CCN(S(=O)(=O)/C=C/c2ccccc2)CC1)NCC(F)(F)F | 0.919
COc1ccc2nc(NC(C)=O)sc2c1 | -7
CCCCC(=O)Nc1cc(OC)c(NC(=O)C2CCCCC2)cc1OC | 12.1
CCC(=O)N1CCc2cc(-c3csc(NC(=O)c4ccco4)n3)ccc21 | 15
O=C(NNS(=O)(=O)c1cc(Cl)c(Cl)cc1Cl)c1cccnc1 | 6.67
COc1ccccc1N(CC(=O)NCCC1=CCCCC1)S(=O)(=O)c1ccccc1 | 0.363
Nc1nc(NCc2ccco2)nn1-c1ccccc1 | 12.2
COC(=O)CC1C(=O)NCCN1C(=O)CSc1nnc(Nc2ccc(C)cc2)s1 (centres unmarked) | 7.15
C/C(=N/NC(=O)c1sc(NS(=O)(=O)c2ccccc2)nc1C)c1ccc(F)cc1 | 7.19
O=C(NCC1CCCO1)C1CCCN(S(=O)(=O)c2cccc3nsnc23)C1 (centres unmarked) | 10.3
C=CCn1c(O)c(CN2CCN(Cc3ccccc3)CC2)c(C)c(C#N)c1=O | -8.67
Cc1nn(C(C)C(=O)NCCCN2CCCCCC2)c(=O)c2c1sc1ccccc12 (centres unmarked) | 3.67
CC(=O)N1CCN(c2nc3cc4c(cc3nc2NS(=O)(=O)c2ccccc2)OCCO4)CC1 | 10.4
Cc1ccc(NC(=O)Cn2nc(C)c3ccccc3c2=O)c(C)c1 | 17
CCCCn1nc(C(=O)N(C)C2CCCCC2)c2ccccc2c1=O | 0.346
